Data from patent US9920069B2, “Compounds for treatment of fluoroquinolone-resistant bacteria” (The Board of Trustees of the University of Illinois, priority 2014, dated 2018).

Test system: S. aureus NRS3 (S84L GyrA and S80F ParC)
Format: cell-based
Settings: in words

CCCc1cc(=O)n(C)c2c3c4c(cc12)c(C)cc(=O)n4CO3 [Compound 7]
activity against NRS3 (structure-activity statement): generally less well tolerated

CCCc1cc(=O)n2c3c(c4c(cc13)c(C)cc(=O)n4C)OC2 [Compound 6]
activity against NRS3 (structure-activity statement): relatively well tolerated
